This is an account of results in article PMC10284917.

By UniProt entry, the sequences of proteins in these tests, tags left out.
UniProt Q27J81: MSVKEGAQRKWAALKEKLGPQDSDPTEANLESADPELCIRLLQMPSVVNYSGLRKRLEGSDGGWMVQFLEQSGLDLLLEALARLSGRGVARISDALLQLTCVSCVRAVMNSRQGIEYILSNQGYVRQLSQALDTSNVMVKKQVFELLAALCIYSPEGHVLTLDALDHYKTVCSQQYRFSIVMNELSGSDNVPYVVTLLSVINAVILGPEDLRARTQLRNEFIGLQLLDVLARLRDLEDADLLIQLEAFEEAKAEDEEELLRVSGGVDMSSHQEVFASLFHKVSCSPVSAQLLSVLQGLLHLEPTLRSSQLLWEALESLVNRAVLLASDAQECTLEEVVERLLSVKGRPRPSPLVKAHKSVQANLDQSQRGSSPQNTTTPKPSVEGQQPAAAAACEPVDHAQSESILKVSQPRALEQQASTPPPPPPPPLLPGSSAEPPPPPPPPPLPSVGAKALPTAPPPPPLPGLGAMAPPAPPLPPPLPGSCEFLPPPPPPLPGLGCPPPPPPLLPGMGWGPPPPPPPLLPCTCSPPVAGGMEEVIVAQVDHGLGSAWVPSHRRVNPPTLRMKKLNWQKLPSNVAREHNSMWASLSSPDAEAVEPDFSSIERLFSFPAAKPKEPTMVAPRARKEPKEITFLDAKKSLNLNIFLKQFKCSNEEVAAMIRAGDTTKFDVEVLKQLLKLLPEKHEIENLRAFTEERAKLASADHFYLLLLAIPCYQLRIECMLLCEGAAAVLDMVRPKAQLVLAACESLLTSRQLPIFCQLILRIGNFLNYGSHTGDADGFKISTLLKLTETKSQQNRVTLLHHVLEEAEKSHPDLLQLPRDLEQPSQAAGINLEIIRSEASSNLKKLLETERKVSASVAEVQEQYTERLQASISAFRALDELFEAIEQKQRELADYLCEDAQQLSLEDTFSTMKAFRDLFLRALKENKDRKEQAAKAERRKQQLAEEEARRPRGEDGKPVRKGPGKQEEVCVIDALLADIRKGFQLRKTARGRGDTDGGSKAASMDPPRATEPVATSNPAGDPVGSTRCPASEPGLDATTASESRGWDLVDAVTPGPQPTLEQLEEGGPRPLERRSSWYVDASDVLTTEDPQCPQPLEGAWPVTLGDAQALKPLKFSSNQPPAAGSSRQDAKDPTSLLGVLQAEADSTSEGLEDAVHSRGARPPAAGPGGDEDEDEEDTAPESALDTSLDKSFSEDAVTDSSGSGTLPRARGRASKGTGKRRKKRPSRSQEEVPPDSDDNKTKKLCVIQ
UniProt Q969H0: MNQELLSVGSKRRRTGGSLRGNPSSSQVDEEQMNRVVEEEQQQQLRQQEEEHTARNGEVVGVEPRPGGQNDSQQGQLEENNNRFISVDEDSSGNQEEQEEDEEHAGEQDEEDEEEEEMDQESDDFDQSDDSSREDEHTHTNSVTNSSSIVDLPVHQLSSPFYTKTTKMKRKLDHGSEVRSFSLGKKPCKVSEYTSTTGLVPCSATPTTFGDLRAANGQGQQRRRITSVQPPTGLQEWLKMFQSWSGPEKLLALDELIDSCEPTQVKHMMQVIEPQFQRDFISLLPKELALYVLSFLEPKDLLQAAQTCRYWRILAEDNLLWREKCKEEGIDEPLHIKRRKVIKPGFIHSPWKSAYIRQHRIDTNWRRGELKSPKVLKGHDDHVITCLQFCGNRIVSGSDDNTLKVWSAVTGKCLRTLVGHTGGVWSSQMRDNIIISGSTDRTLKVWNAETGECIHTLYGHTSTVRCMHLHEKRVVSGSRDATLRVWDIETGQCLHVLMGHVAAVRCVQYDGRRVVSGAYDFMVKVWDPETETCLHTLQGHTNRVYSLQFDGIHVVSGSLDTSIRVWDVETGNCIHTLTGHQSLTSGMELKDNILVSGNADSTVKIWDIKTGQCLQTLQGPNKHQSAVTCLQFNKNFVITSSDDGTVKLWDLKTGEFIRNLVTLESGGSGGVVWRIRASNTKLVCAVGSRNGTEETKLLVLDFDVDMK
UniProt O43791: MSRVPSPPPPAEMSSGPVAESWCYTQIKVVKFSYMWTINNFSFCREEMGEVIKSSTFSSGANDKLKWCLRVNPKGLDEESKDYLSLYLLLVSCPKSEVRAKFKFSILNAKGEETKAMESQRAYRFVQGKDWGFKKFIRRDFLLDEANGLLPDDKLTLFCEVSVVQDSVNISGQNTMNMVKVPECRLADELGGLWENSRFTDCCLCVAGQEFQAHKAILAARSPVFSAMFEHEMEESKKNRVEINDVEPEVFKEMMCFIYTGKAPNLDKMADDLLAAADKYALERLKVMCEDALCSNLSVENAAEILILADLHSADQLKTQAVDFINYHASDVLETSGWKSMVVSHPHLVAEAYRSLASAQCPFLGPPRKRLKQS

These are yes or no findings as the source states them, for the method shown. Binding seen in cells or lysates may run through a third protein. Some entries that bind do so weakly or less than the wild type.

Experiment [1] concerns the target FLAG-INF2 (INF2-CAXX, ER-localized inverted formin 2) (UniProt Q27J81). Nature of the experiment: co-IP; anti-FLAG M2 agarose beads, lysates (RIPA (Low) Lysis Buffer) of HEK-293T cells transfected with both constructs, 20 μM MG132 for 8 h before harvesting; 4 h at 4 °C; washed with BC100 buffer (20 mM Tris-Cl pH 7.9, 100 mM NaCl, 0.2 mM EDTA, 20% glycerol) with 0.2% Triton X-100; eluted with FLAG peptide; western blotting.

Experiment [2] concerns the target T1, endogenous FBXO7 (AN3 CA cells) (human (endogenous in AN3 CA)) (UniProt Q9Y3I1).
T1 sequence: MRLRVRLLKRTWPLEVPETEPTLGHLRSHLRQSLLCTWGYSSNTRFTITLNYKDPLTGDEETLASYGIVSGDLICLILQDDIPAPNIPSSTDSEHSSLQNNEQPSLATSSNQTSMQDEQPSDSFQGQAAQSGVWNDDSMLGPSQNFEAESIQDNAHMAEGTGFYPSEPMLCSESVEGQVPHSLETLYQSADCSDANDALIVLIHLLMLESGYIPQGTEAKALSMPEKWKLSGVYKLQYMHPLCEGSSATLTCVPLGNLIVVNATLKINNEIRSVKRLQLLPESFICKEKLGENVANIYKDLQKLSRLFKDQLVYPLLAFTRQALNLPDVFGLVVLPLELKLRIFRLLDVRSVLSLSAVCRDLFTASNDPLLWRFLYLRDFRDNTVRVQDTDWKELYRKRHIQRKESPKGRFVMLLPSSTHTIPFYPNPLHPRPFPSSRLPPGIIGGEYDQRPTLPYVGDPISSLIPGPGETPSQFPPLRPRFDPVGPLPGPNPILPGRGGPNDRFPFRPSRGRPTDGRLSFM
Nature of the experiment: co-IP; endogenous proteins, AN3 CA cells lysed in RIPA (Low) lysis buffer; anti-FBXO7/IgG Protein A/G magnetic beads, 4 h at 4 °C; eluted with SDS-PAGE loading buffer; western blotting. A general note: A western blot detects proteins with antibodies after separation by electrophoresis.

The target in experiment [3] is FLAG-INF2 (INF2-CAXX, ER-localized inverted formin 2) (UniProt Q27J81). Nature of the experiment: co-IP; anti-FLAG antibody, HEK-293T cells transfected with FLAG-INF2 plasmid or not; endogenous partners detected by western blotting.

Regarding “F-box and WD repeat domain-containing 7 (FBXW7) (from UniProt Q969H0 1-707)”, in experiment [1], the binding entry was “no binding”.

Regarding “endogenous INF2 (AN3 CA cells) (from UniProt Q27J81 1-1249)”, in experiment [2], the binding entry is “binds”.

For the substance “endogenous SPOP (HEK-293T cells) (from UniProt O43791 1-374)”, in experiment [3], the binding entry is recorded as “binds”.
